According to patent US10933032B2, “Methods for the treatment of cancer using coenzyme Q10 combination therapies” (Berg LLC, priority 2013, dated 2021):

Tests used:
[1] = test system: Hep3B liver cancer cells; conditions: CoQ10 (100 μM) with irinotecan (SN38), cisplatin, 5-fluorouracil or doxorubicin, FIGS. 9A-9C and 10
[2] = test system: non-tumorigenic mammary cells (MCF12A); assay: Number of viable cells; assay type: cell-based; conditions: CoQ10 (100 μM) alone, or pretreatment / cotreatment with 5-FU, doxorubicin or SN38, 48 hours
Protocol: Human breast cancer cells of varying receptor status (SKBR3, MDA-MB231) were subjected to either (a) pretreatment with CoQ10 (6 h) followed by co-incubation with chemotherapeutic agents (5-fluorouracil, 5-FU; doxorubicin, Doxo; SN38, irinotecan active metabolite) for 48 h, or (b) co-treatment with CoQ10 and chemotherapeutic agents. Cancer cell responses were compared to non-tumorigenic mammary cells (MCF12A). […] Propidium iodide (PI) and CFSE Cell Tracer were used to measure cell death and proliferation, respectively, in the treated cells.

[3] = test system: Human pancreatic cancer cells (PcCa2); assay: Number of viable cells, CoQ10 pretreatment or cotreatment with gemcitabine (Example 18); assay type: cell-based; conditions: cotreated with 100 μM CoQ10 and gemcitabine (0.1, 1 and 5 μM), *p<0.05, FIG. 26
Protocol: Human pancreatic cancer cells (PcCa2) were pretreated with 100 μM CoQ10 followed by treatment with gemcitabine (0.1, 1 and 5 μM), or cotreated with CoQ10 and gemcitabine.

COC1=C(OC)C(=O)C(C/C=C(\C)CC/C=C(\C)CC/C=C(\C)CC/C=C(\C)CC/C=C(\C)CC/C=C(\C)CC/C=C(\C)CC/C=C(\C)CC/C=C(\C)CCC=C(C)C)=C(C)C1=O [CoQ10, Coenzyme Q10]
Efficacy of chemotherapeutic agents (cell death, number of live cells) [1]: increase the efficacy of all of the chemotherapeutic agents
Number of viable cells [2]: minimal effects
Number of viable cells compared to gemcitabine alone, cotreatment [3]: significantly decreased the number of viable cells
